Source: the supplement of paper PMC5499739
In all, about 16,000 sequences were measured (“Z-score”: median about -0.37, highest 2% from about 3.2 on). The list shows a part of the results.

Tested on: RBM10 RRM1-ZnF (GST-tagged construct)
Experiment: RNAcompete 7-mer binding Z-score; higher = stronger binding preference
Method in brief: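 GST-tagged RBM10 constructs (20 pmol) were mixed with a designed pool of 241 399 RNAs up to 41 nt (1.5 nmol), transcribed from microarray-derived DNA templates. Mixing was in 1 ml Hepes pH 7.8 buffer with KCl, NaCl, glycerol, DTT, BSA and glutathione Sepharose beads. Binding ran 30 min at 4°C, followed by four 2-min washes at 4°C, and bound RNA was identified by microarray hybridisation. Each heptamer motif received a one-sided Z-score for enrichment across probes containing it.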

Sequence	RNAcompete 7-mer binding Z-score
GUCUACA	-0.477
GCACAAA	-0.519
GGGAAAG	4.79
ACUAUUA	-0.707
UCCAGGU	0.0235
ACAUACC	-0.74
AGACCUG	-0.902
CGACCCA	-0.587
UUUUCUA	-0.662
ACUCGGU	-0.555
AGGAGCG	2.4
AUAGGGG	3.9
CUGAACC	-0.597
CAUAUAA	-0.604
GGGUCCU	0.563
GUGAGUG	1.56
CCGUGUC	-0.597
CUUCUAG	-0.746
GCACAAG	0.14
AGCGCUU	-0.6
UAACUCC	-0.711
AUGAUUA	-0.214
CAUUACA	-0.675
AGUUAUC	-0.522
ACUAAAG	-0.0837

Sequence	RNAcompete 7-mer binding Z-score
CUCUGGG	0.4
AAUCUCA	-0.717
GGUCUGC	0.15
UGCGUAA	-0.243
GAUGCGC	0.251
AAAGCGU	-0.152
AUUUGAA	-0.526
UACCACA	-0.568
AACCAGA	-0.327
AUGUUAU	-0.288
AGAAACG	0.163
UCGAAUU	-0.552
UAACGUG	0.108
CGAACCC	-0.659
CGCACUC	-0.506
AUGCAUA	-0.418
GUAACUC	-0.288
AAGAUUA	-0.217
GGCGAGU	1.13
GACUCUU	-0.831
CUGUAAU	-0.61
AUUCACU	-0.707
UGAGGGA	4.02
AUCCCUA	-0.789
GCCAACU	-0.535

Sequence	RNAcompete 7-mer binding Z-score
CACGAUC	-0.568
AGAGUCU	-0.418
UCUCGUU	-0.678
GGUUGCU	0.54
GACUGGA	1.36
AGUCUGC	-0.646
AUGAAUU	-0.00896
GAAGGGU	4.19
ACGUUCU	-0.808
GCCCUGU	-0.399
UUGCAGC	-0.571
CGGGCCC	-0.506
UAGCAGG	1.26
GUAUCUA	-0.37
ACUGCUA	-0.526
GACCUGU	-0.847
GAUGCAG	1
AAUAUGC	-0.415
GGCAACU	-0.0577
GAUUUUA	-0.691
ACCGUAU	-0.746
GCAAUGG	1.63
CUAUCGA	-0.675
UGUAGCG	0.339
AAGAAAG	1.13

Sequence	RNAcompete 7-mer binding Z-score
ACCGUCA	-0.707
CGAACUG	-0.431
GCCUUGG	0.00404
UCCUGGA	-0.441
CGGGCGC	0.508
GCUACUC	-0.496
GGUGAGU	1.96
UACUGUU	-0.565
UCAGCUU	-0.737
AUGCGGG	2.62
CUAAGUA	-0.269
AUUUUAA	-0.756
UGAUGCA	0.0495
GCUCGGG	0.69
GUAUGUA	0.625
GGGCGAA	2.22
CGUUGAU	-0.448
GCUUGCA	-0.587
ACGACUA	-0.496
CACCGUA	-0.623
GCGAUGA	0.537
GUAUAAC	-0.149
CCAAUAA	-0.766
AAGAGUU	0.426
UCAAGCA	-0.48

Sequence	RNAcompete 7-mer binding Z-score
GCGGGCU	1.1
UUAGUCA	-0.396
GACCUGA	-0.717
UAAUCUU	-0.824
CCAGCAC	-0.526
UAUUGUA	-0.347
UGGGCUC	1.09
AUCCAAC	-0.792
AAAUAAC	-0.545
UUGUAAG	0.102
AUGAUGU	0.339
CUCUUCG	-0.792
GGCAGCA	0.29
AAUAUAC	-0.594
UCCGUAG	-0.327
CCUGCUU	-0.935
GUUCGUU	-0.366
ACCUCCC	-0.578
CCUUCAG	-0.805
GGCCGCG	-0.0382
AUGGCAA	0.839
GUAGCUU	-0.441
UCUCGCC	-0.75
CGAGACU	-0.438
UCAUUGU	-0.72

Sequence	RNAcompete 7-mer binding Z-score
GAACCCU	-0.772
UCCUAGA	-0.73
GAGGACC	0.235
CAUGCGU	-0.568
CGUUUGU	-0.461
GGUUGAU	1.7
GCUGACU	-0.311
AGGUUGU	0.803
UUUUGUG	-0.0869
AGCACCU	-0.613
UCUCAUA	-0.678
GGAACAA	0.884
GACAGAC	-0.11
GGCGUGG	2.9
CGGCGCG	0.413
UUAGAAA	-0.0739
UUGCUGA	-0.324
GGUUUUA	0.677
AUAUUGG	0.897
CCUCGGC	-0.47
CUAUCGC	-0.668
CAUUGGA	0.326
CAUUCCC	-0.763
CGUUGAA	-0.249
AAUGCAG	-0.0155

Sequence	RNAcompete 7-mer binding Z-score
UGAGACA	0.222
CUAUCGU	-0.727
AAAUGAG	0.488
AUGACCG	-0.425
GAUGACU	-0.184
UGUUUAC	-0.642
UGGUUAG	2.24
UGACCCG	-0.142
GAGCCAC	-0.457
CCCCGUG	0.482
CCCACAU	-0.626
AACCCUC	-0.828
CUCUCGG	-0.568
AUCGGGU	1.7
GUCAUUA	-0.37
UGAAAGU	0.296
AUAUCAU	-0.558
AGUGACA	0.218
GACUGGU	1.05
UGUUCAG	-0.435
GACUAAU	-0.396
AUAGUAC	-0.373
GACCCGA	-0.594
CGGUAUG	0.985
UAGAGUU	-0.0739

Sequence	RNAcompete 7-mer binding Z-score
UCACGGU	-0.175
UGCCGGA	-0.0479
CCGAUGG	0.267
GAUCCGG	-0.0122
GAUCUUA	-0.561
CGGAUUG	0.897
GCCAGAG	0.00729
UCCAGGC	-0.623
GGACCUA	-0.149
UGCUACA	-0.545
UCACUGG	-0.0317
ACAUGUG	0.381
AUACUGG	0.352
GUGUGUG	1.13
AGGGAGG	3.68
GCCUCCG	-0.493
GCGGCAU	0.361
AGAGGCU	-0.243
UACAACA	-0.149
UAAGAUC	-0.496
CAGGACU	0.183
UGCAGGA	0.966
GUAGGUG	3.06
GACACGG	1.05
CGAAAAU	-0.477

Sequence	RNAcompete 7-mer binding Z-score
AUCUCGA	-0.724
GCGGAAC	0.901
ACUGGGA	2.35
AUUGGAA	1.29
AAGCAGA	0.475
CAGUCCU	-0.837
GUAAGUG	1.25
AUGUUAC	-0.47
UCGUGCC	-0.655
CAUCUAC	-0.704
CUCGCUC	-0.743
UCGGGAG	1.12
UCCCAAC	-0.6
GGCGUGA	1.04
CUCAUUU	-0.997
CUUCUUC	-0.854
UUGGCCU	-0.509
UGGCUCA	0.0333
UUUCUAA	-0.717
UAAAUUU	-0.691
CGUUGGG	1.9
ACGUCUU	-0.85
CAUAGUA	-0.149
AGCUCCG	-0.766
CUGUCAA	-0.607

Sequence	RNAcompete 7-mer binding Z-score
AUCGGUU	-0.035
UUGCCUA	-0.597
CGGACUU	-0.285
UCAGCUG	-0.373
GGGCGGA	2.86
AGAAGUC	-0.405
ACACAUU	-0.737
CACUAUA	-0.532
CCGACCC	-0.509
GUAUAGU	0.472
CGUGAUG	0.605
GCCGGGA	0.638
UACCCAG	-0.659
CAAUUAU	-0.753
GGCGGGA	3.05
AUGAAAG	1.08
CCGCCCC	-0.477
AUUUGGA	0.647
AUGAUCG	-0.022
CGCGGCC	-0.383
CCGCGGU	0.443
GUUGCUA	-0.197
CACAUGU	-0.448
GGUCGGU	1.24
CUUCGGU	-0.422

Sequence	RNAcompete 7-mer binding Z-score
AAACGCC	-0.785
GGGCCUU	-0.0999
UUCUGAU	-0.831
CGGUUUU	0.0268
ACUGUUG	-0.256
UUAGUGA	0.102
UACUGUC	-0.789
CCUACAC	-0.847
CGACCUC	-0.792
GCGAUGC	0.102
AUUAGCA	-0.0869
CCUAGCC	-0.613
CAACAGG	0.699
UCACGAU	-0.591
AUUGCGA	-0.181
CGCGUCU	-0.688
AAAGUGG	2.15
CUAGCCC	-0.61
UCUUCGC	-0.899
GUUACGG	0.859
CCUUAUA	-0.87
CAUGAUU	-0.73
GGGAGAC	2.2
AGAGCGC	-0.568
CUUUCCA	-0.889

Sequence	RNAcompete 7-mer binding Z-score
AAGAGAU	0.293
CACCAAG	-0.461
AAAUAUA	-0.145
GAAUGAC	0.16
GCCCCAU	-0.707
CUGGUUC	-0.519
ACAAAUA	-0.376
GCGUUGA	-0.0999
UUGGAUC	-0.119
UGCGGAG	1.57
UACCCAA	-0.724
GAUCGGA	0.621
UCAUACG	-0.49
CUAACGC	-0.766
UGUCCAG	-0.646
CGUCACU	-0.522
AGACCAG	-0.513
AAGCACG	-0.0772
GCAGCCA	-0.438
AACUUGC	-0.802
UGACGCA	-0.113
CCGCGGA	0.306
UUGUAAU	-0.383
CCGAGAC	-0.756
GGCAUGU	0.719

Sequence	RNAcompete 7-mer binding Z-score
GUGCAUA	0.196
GUGAUGU	0.433
GUGCGGA	2.13
AAGCUGU	-0.655
GUGAGUA	1.02
UACGCGU	-0.318
UGUUACA	-0.405
UCGCACG	-0.149
AACGGUA	1.12
GGGUGUU	3.01
UUAAGAG	0.306
GAACACA	-0.266
UAGCACG	-0.168
UAUGAGU	0.202
AUAGUGC	0.173
CAAUGAG	0.183
UGCCCAA	-0.542
CGGUUAC	0.319
UUGCUUC	-0.802
CUCUCAC	-0.688
UUAAUGA	-0.301
AAGUCUU	-0.681
AAUGGAG	3.43
CCAUGCG	-0.47
CAAGAAU	-0.269

Sequence	RNAcompete 7-mer binding Z-score
UGAUUAC	-0.535
CGAAGAG	0.329
ACGAGAC	-0.171
AUGCUUA	-0.665
GGAACUA	0.368
UACGUAA	-0.269
GUUUCAC	-0.597
CUUCUUU	-0.886
AUACCGG	-0.376
CAGGAAU	0.894
UGCGGUC	0.0105
GCGCAGA	0.54
AGAGGGA	2.09
GAAUGGU	3.01
CACUAUC	-0.649
CGAAUAG	0.056
CUUACCC	-0.792
UCUCCGU	-0.815
GAAAUAU	-0.0414
AUCCGGC	-0.636
AUGAAGC	0.0853
UAGAAUU	-0.262
CAGCGAA	-0.11
UCAGUCG	-0.353
GUCCUCC	-0.438

Sequence	RNAcompete 7-mer binding Z-score
GUGGAGC	2.91
UACUAUC	-0.711
GUCAGUA	0.196
GUUGAUG	1.24
ACAUAGG	0.875
GCCAAAC	-0.548
CUGUUAC	-0.73
CCAUGAC	-0.805
AGAUGUU	-0.0934
UGGAUCG	0.576
AGGCAUC	-0.269
GACACCC	-0.542
CUCCCUG	-0.311
CGGACGG	1.32
CAAUAGA	0.0463
GGACAAA	0.988
CGCCACC	-0.0967
